Measured values: PubChem BioAssay AID504845 (National Center for Advancing Translational Sciences (NCATS), 2011)
Several values for one entry are separate records, joined by “and”; a condition that tells them apart may be missing. Identical values can stand only once. Out of some 390,000 compounds screened, about 150 (0.038%) were called active. Inconclusive means that the source gave no clear call. Such entries were picked first, then a sample of the others. Calls come from the whole dose curve; as a rule, active = well fitted inhibition curve with a large enough effect; inconclusive = small, poorly fitted or top-dose-only effect; inactive = no such curve, though single readings can be large or run the other way. Potencies of inconclusive entries are doubtful fits and often do not repeat.

Molecular target: Regulator of G-protein signaling 4 (Homo sapiens) (UniProt P49798)
Assay: Inhibitors of Regulator of G Protein Signaling (RGS) 4: qHTS; note: nearly all actives have a fitted effect of over 75% in size
Details: Transcreener GDP fluorescence polarization, RGS4-accelerated GTP hydrolysis; series mostly up to 114 µM
From the text: G-protein-coupled receptors (GPCRs) are well-established targets for drug discovery and development. Members of the "regulator of G-protein signaling" (RGS)-protein superfamily have recently emerged as critical modulators of specific GPCR signaling pathways. […] Combining specific RGS domain inhibitors with existing GPCR agonists should potentiate cellular responses and could also increase the specificity of action of existing therapeutics. Small molecule modulators of RGS domain activity should also have clinical utility in inhibiting or potentiating the actions of endogenous GPCR agonists. In particular, the diversity of RGS proteins with highly localized and dynamically regulated distributions in the human brain makes this family of proteins attractive targets for pharmacotherapy of central nervous system (CNS) disorders such as Parkinson's disease, schizophrenia, and anxiety.
This assay was used to screen the NIH Molecular Libraries Small Molecule Repository (MLSMR) in order to identify a small molecule that inhibits RGS4.
NIH Chemical Genomics Center [NCGC]
NIH Molecular Libraries Probe Centers Network [MLPCN]
Assay Submitter (PI): David Siderovski, University of North Carolina Chapel Hill (School of Medicine)
Two microliters of 500nM (2x working concentration) is dispensed into black medium-binding solid-bottom Kalypsys plates. Then with the Kalypsys pintool 23nl of control and compounds are transferred; the control compound is […] CCG-4986 (working concentration). After a 10 minute incubation at room temperature 2ul of antibody is added with the Kalypsys dispenser; (-)RGS4/Transcreener GDP solution in columns 3 and 4 which consisted of 10nM (2x working concentration) Alexa633, 20uM GTP, and 20 ug/ml GDP antibody and (+)RGS4/Transcreener GDP solution in columns 1,2, and 5 to 48 which consists of 900nM RGS4 (2x working concentration), 10nM Alexa633, 20 ug/ml GDP antibody. The plate is centrifuged at 1000 RPM for 15 seconds to remove any possible bubbles and then incubated for 5 minutes at ambient room temperature. An initial fluorescent polarization read (620 nm/688 nm) is performed on the Envision before the plate is incubated for 90 minutes at 30 deg C at a relative humidity of 80%. The plate is once more centrifuged at 1000 RPM for 15 seconds and another Envision fluorescent polarization (620 nm/688 nm) read is carried out.
Potency is the fitted concentration of half-maximal effect; tags give direction and shape of the fitted curve.

Sequence of UniProt P49798 (P49798 whole entry, looked up): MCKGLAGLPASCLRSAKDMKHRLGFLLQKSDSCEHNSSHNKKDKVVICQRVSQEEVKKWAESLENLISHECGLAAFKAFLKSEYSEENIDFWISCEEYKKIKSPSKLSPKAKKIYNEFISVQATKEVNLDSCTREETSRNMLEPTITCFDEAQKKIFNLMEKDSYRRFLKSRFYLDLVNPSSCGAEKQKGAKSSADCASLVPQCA

SMILES	Potency
CC1(C)CO[C@@H](CC(=O)O)CN1	inconclusive: 0.336 µM [inhibitor, partial curve, poor fit]
Nn1cnnc1N/N=C/c1cccc(Cl)c1Cl	inconclusive: 79.4 µM [inhibitor, partial curve, poor fit]
COCCCNc1ncnc2c1sc1nc(-c3ccco3)c3c(c12)CC(C)(C)OC3	inconclusive: 56.2 µM [inhibitor, partial curve, poor fit]
Cc1ccc(-n2c3nc(=O)[nH]c(=O)c-3cc3cc([N+](=O)[O-])ccc32)cc1C	inconclusive: 79.4 µM [inhibitor, partial curve, poor fit]
CC(C)CNC(=O)c1ccc(C2SCC(=O)N2Cc2ccccc2)cc1 (stereo unspecified)	inconclusive: 17.8 µM [inhibitor, full curve, poor fit]
O=C1CCN(CCc2ccccc2)CCN1[C@H](COc1ccccc1)c1ccccc1	inactive
Cc1ccc([N+](=O)[O-])cc1-c1ccc(/C=C(\C#N)c2[nH]nc(N)c2C#N)o1	inconclusive: 50.1 µM [inhibitor, partial curve, poor fit]
CC(=O)Nc1ccc(NC(=O)CCn2nnc3ccccc32)cc1	inconclusive: 17.8 µM [inhibitor, full curve, poor fit]
CN(CC(=O)Nc1ccc(S(=O)(=O)N2CCCC2)cc1)Cc1cccc(Cl)c1Cl	inactive
CCCOC(=O)c1ccc2c(c1)C(=O)N(c1ccccc1)C2=O	inactive
Cc1ccc(C(=O)CSC2=NC(N)=C(C#N)C3(CCCCC3)C2C(N)=O)cc1 (stereo unspecified)	inconclusive: 79.4 µM [inhibitor, partial curve, poor fit]
Cc1[nH]c2ccccc2c1C(O)CN1CCN(c2cccc(C(F)(F)F)c2)CC1 (stereo unspecified)	inactive
O=C(N/N=C/c1ccncc1)c1cccc(NC(=O)c2ccc(Cl)cc2)c1	inconclusive: 22.4 µM [inhibitor, full curve, poor fit]
COc1cccc2c1[C@@H]1CN(CCCCn3c(=O)[nH]c4c(sc5ncc(-c6ccccc6)nc54)c3=O)C[C@@H]1CO2	inactive and inconclusive: 16.8 µM [inhibitor, single point]
COc1ccc(Cn2c(N)c(C#N)c3nc4ccccc4nc32)cc1	inconclusive: 79.4 µM [inhibitor, partial curve, poor fit]
Cc1cc(C(=O)N/N=C/c2ccc3c(c2)OCO3)c2ccccc2n1	inactive
COc1ccc(CNCc2ccc3c(c2)n(C)c(=O)n3C)cc1	inactive
CC1(CCc2ccccc2)NC(=S)N(c2ccc(Cl)cc2)N1 (stereo unspecified)	inconclusive: 50.1 µM [inhibitor, partial curve, poor fit]
CC(C)(C)C1CCc2c(sc(N)c2C(N)=O)C1 (stereo unspecified)	inconclusive: 56.2 µM [inhibitor, partial curve, poor fit]
Cc1snc(SCC(=O)c2ccc([N+](=O)[O-])cc2)c1C#N	inconclusive: 50.1 µM [inhibitor, partial curve, poor fit]
COC(=O)/C=C1/SC(=NC(=O)c2ccc(OC)cc2)NC1=O	inconclusive: 20 µM [inhibitor, full curve, poor fit]

SMILES	Potency
Cn1c(-c2cc3ccc(OC(=O)C(C)(C)C)cc3oc2=O)nc2ccccc21	inconclusive: 79.4 µM [inhibitor, single point]
Cc1ccc(NC(=O)Cn2cnc3ccccc32)cc1C	inconclusive: 70.8 µM [inhibitor, partial curve, poor fit]
Nc1nc(Cl)nc2c1ncn2[C@H]1C[C@H](O)[C@@H](CO)O1	inactive
COc1cc(C)c(NC(=O)C(=S)NCCc2ccccc2)cc1C	inconclusive: 70.8 µM [inhibitor, partial curve, poor fit]
COc1ccc(SCC(Cc2ccccc2)N2CCN(CC(C)C)CCC2=O)cc1 (stereo unspecified)	inconclusive: 50.1 µM [inhibitor, partial curve, poor fit]
Cc1nc2ncccn2c1-c1csc(Nc2ccc(O)cc2)n1	inconclusive: 79.4 µM [inhibitor, partial curve, poor fit]
COc1cccc(NC(=O)CN(C)C(=O)Cc2cccc3ccccc23)c1	inactive
Cc1oc(=O)c(NC(=O)c2ccccc2)cc1C(=O)c1ccccc1	inconclusive: 79.4 µM [inhibitor, partial curve, poor fit]
Cc1ccc(NC(=O)COc2ccc(/C=C3/SC(=Nc4ccccc4)N(Cc4cccnc4)C3=O)cc2)cc1	inactive
N/C(=N\OC(=O)c1ccccc1F)c1ccc([N+](=O)[O-])cc1	inconclusive: 89.1 µM [inhibitor, single point]
N#C/C(=C\c1cccs1)C(=O)NCc1ccccc1	inconclusive: 31.6 µM [inhibitor, full curve, poor fit]
CCOc1ccc(N)c(SSc2cc(OCC)ccc2N)c1	inconclusive: 17.8 µM [inhibitor, full curve, poor fit]
O=C(Nc1cccc(C(=O)Nc2cccc(Br)c2)c1)c1ccccc1	inactive
O=C(NC(NC(=S)Nc1ccccc1C(=O)O)C(Cl)(Cl)Cl)c1cccc([N+](=O)[O-])c1 (stereo unspecified)	inconclusive: 44.7 µM [inhibitor, partial curve, poor fit]
O=C(O)c1cccc(NC2=C(N3CCOCC3)C(=O)c3ccccc3C2=O)c1	inactive
COc1ccc(OC)c(Nc2nc(-c3ccncc3)nc3ccccc23)c1	inactive
CCCC(C)c1nc(C(N)=O)c2[nH]c(=O)n(-c3ccc(OC)cc3OC)c2n1 (stereo unspecified)	inconclusive: 56.2 µM [inhibitor, partial curve, poor fit]
CCOc1ccc2[nH]c(C)c(CN(C)C)c(=O)c2c1	inactive
CC[C@H](C)/C=C/C1=CC2=C(Cl)C(=O)[C@@]3(C)OC(=O)C(C(=O)[C@H](C)[C@@H](C)O)=C3C2=CO1	inconclusive: 17.8 µM [inhibitor, full curve, poor fit]
Cc1[nH]nc2nc(SCC(=O)NC3CCCCC3)n(-c3ccc(Br)cc3)c(=N)c12	inactive
